# Data: the supplement of paper PMC10185492
# The other results are listed elsewhere or left out. Values come from read counts of a selection and are noisy.
# System: SARS-CoV-2 3CLpro (nsp5)
# Test: substrate phage enrichment score (protease-eluted vs HEPES control, +1 offset) (ratio); higher = better cleaved substrate
# Conditions: selection round: 3; protease elution time: 0.5 h
# Protocol: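 Random heptapeptide substrate phage display (M13 pIII fusion, heptapeptide between an N-terminal biotinylated AviTag GLNDIFEAQKIEWHE and pIII; phages immobilised on streptavidin) eluted by cleavage with 50 nM protease in 20 mM HEPES at 37 °C. Selected phages were NGS sequenced, and the enrichment score is (reads in protease sample + 1)/(reads in HEPES blank-selection control + 1).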
row,Substance,substrate phage enrichment score
1,ANDATYG,> 27
2,CTGLSKM,> 66
3,CLPSLQG,11
4,ELSSYLQ,> 38
5,CRAPHLK,9.33
6,TSTWLQN,> 38
7,PIDRHWQ,1.27
8,HHTPPTR,> 25
9,QWTPYQQ,> 34
10,ATAHHHH,0.693
11,PDHGCVT,21
12,TRTMPRL,> 42
13,HRGARLQ,> 30
14,QEWGPVL,> 23
15,MRPHIII,1.13
16,ASHPWCL,4.5
17,ATLNHLE,7.5
18,DRETMQH,2.67
19,LPTGTYS,> 21
20,TQDTLTR,0.579
21,EVRTPDK,3.33
22,DSDRNVN,> 24
23,VSRLQSK,29
24,DKATNLQ,> 25
25,QPYSLTQ,4.2

row,Substance,substrate phage enrichment score
1,TASCRLQ,> 60
2,PDEDAPQ,10
3,SCCTHLQ,11
4,ATKPADG,2.07
5,QIRKDDG,> 48
6,AQTECAS,13.7
7,MGCRRDL,3.12
8,CIPGVKL,7.67
9,SPSFGCT,> 22
10,ADPSFPQ,7.33
11,SSASVGA,1.06
12,SKLPRLQ,63
13,TQIPNHR,0.273
14,TQSHQRT,8.67
15,AAAHHHH,0.974
16,ASGYPVS,0.846
17,YRPESVG,6.33
18,VSAAHHH,1.33
19,LPTQGTM,2.38
20,MAAAHHH,1.09
21,QYCTGCR,> 93
22,AAAQQHH,0.688
23,FRYRMWC,1.6
24,TEQTPVT,> 27
25,ASLGKDQ,1.9

row,Substance,substrate phage enrichment score
1,NPALTPT,> 21
2,YSTKPLW,6.17
3,VSYDVIQ,0.75
4,AFRSELQ,4.5
5,KGRAQRN,1.75
6,VQSPPGS,18
7,QFQECFR,3.86
8,THTRTET,> 57
9,AVAAHHH,0.6
10,TCRPKGN,18
11,PCSLTDQ,> 25
12,RSRTLLQ,> 25
13,LQKMQTR,> 39
14,NHHHHGA,1.12
15,HHHHHHG,0.764
16,VTPFKQQ,4.2
17,VAAAHHH,1.08
18,FAGTQPF,0.786
19,DTVEPMS,1.08
20,SRNLGWQ,13.5
21,RKLPQLQ,6.33
22,YTAAHHH,0.826
23,VQVSGPA,7.33
24,TWELLNR,0.0952
25,QSIQGGS,> 44

row,Substance,substrate phage enrichment score
1,LQCDEVT,2
2,CPTAHHH,1.22
3,GAAAHHH,0.753
4,PAMPYVR,> 24
5,NNAAAHH,1.69
6,RQRCDLH,1.67
7,RTFSRLQ,> 22
8,DTAAAHH,1.05
9,VRPHINI,0.775
10,KGSPTLQ,> 60
11,AQKQASE,4.44
12,ESAAAHH,1.33
13,ARNLQGP,15
14,YSKYCRC,> 26
15,HVLYEPM,> 21
16,LSFQGGS,1.53
17,TGSAAAH,1
18,ASCKPIR,12
19,HLEYWRY,> 28
20,KWQGSVI,> 26
21,VRCRLQA,272
22,RHLNSSD,16
23,HGAKLCP,2.71
24,LFFQGGS,10
25,AIPVWQA,3.17

row,Substance,substrate phage enrichment score
1,ENEPDSY,2.48
2,SAAAHHL,1.54
3,ESSGPSI,2.55
4,CQRVTKP,7
5,CFLLRKS,10
6,NRFFQGG,3
7,KKNNAYR,3.38
8,TPYCSNT,16
9,RAPAILQ,> 141
10,EESANAH,3.14
11,QKRTPGN,0.152
12,TATAHHH,0.3
13,QLNEAGH,> 46
14,GPNTKLQ,> 58
15,KQGGDPQ,1.53
16,TTERCPS,2.67
17,YGACQPT,4.75
18,FHTQLQC,> 28
19,NDHTELQ,> 85
20,QLQAQHD,> 21
21,TAAPVFQ,> 25
22,GKCSLQS,> 27
23,DSGSVCE,22
24,RDQQLNR,4.3
25,DAAVLQA,> 22

row,Substance,substrate phage enrichment score
1,KSGAGAC,> 37
2,LQQKFIQ,30.7
3,AQSPTLQ,> 52
4,KYFQGGS,0.979
5,LWRHGMP,> 75
6,CETVQPT,> 52
7,NQTSGRH,> 23
8,CIFHAPE,2.27
9,HTQPTLS,> 28
10,RPGPQEQ,1.4
11,CTRPLPG,> 33
12,ACKYNRQ,> 61
13,KPTSLLD,1.14
14,RRCNISR,1.17
15,PHVSKPA,> 31
16,YSAAAHH,1.53
17,LNWRVTT,4.75
18,SEAAHHH,1.01
19,FAPTPHV,4.75
20,SDGTSYI,1.2
21,TAVTEGT,0.643
22,PGDTGAT,> 22
23,PTRPSSR,4.22
24,PYPAAHH,38.5
25,CSSKRPA,3.4

row,Substance,substrate phage enrichment score
1,WYLTPNR,1.59
2,KPVDVSR,> 26
3,PRAAHHH,1
4,NQPSKPA,1.57
5,PWSTGMQ,0.289
6,ITPTRLQ,> 56
7,AKLQSQW,> 30
8,RDCIREA,2
9,RQSTSPK,1.94
10,EHNSCLQ,> 32
11,TPAHHHH,1.07
12,LKPVQTR,5
13,NRRHCAR,15
14,ELNIQGG,> 27
15,KSSPAAH,1.41
16,YGEVTLQ,297
17,GGSYIMH,2.25
18,RDQPPAK,10.5
19,NPRCQHP,13
20,EAWSPPA,13.5
21,TKFLTNG,12
22,KKQTLLQ,> 107
23,QNFQGGS,0.6
24,IQCVVKP,0.353
25,CTQWPRS,0.4

row,Substance,substrate phage enrichment score
1,KWTNLPR,6.33
2,LDFQGGS,0.811
3,SDYVRPR,2
4,ACQGNWR,1.73
5,TPPNSLR,0.656
6,ETFHASG,5
7,TQMSTTS,> 22
8,SMAAHHH,0.773
9,TACLQGR,8.67
10,THSQWPN,19
11,SNPNHMI,5.9
12,CTDTLSR,> 159
13,SRTRLQG,138
14,CKLRKPV,2.83
15,KPNQSHQ,> 21
16,HQLASPK,0.857
17,RHNIRAG,0.0741
18,RSQCALH,15.5
19,GRPLHGQ,> 25
20,CDAAHHH,0.571
21,AHWKGMN,0.917
22,VYLQGWL,6.67
23,DKWVPTD,0.533
24,FSLSAGH,3.33
25,HQTKGPG,> 23

row,Substance,substrate phage enrichment score
1,ASAPLLQ,> 260
2,DAAAHHH,0.76
3,LEHPNRA,> 31
4,PTHREGS,16.5
5,RQAAHHH,0.771
6,RNQGIWQ,0.353
7,PTQFDRP,2.15
8,SAAAQHN,1.08
9,VCTGAAK,2.57
10,SPTPKCG,2.29
11,CAAAQQH,0.675
12,TERTNKL,5.44
13,IESITLQ,> 33
14,CQAAHHH,0.444
15,KHFQGGS,1.08
16,PRCPLTW,> 35
17,SRDEPYG,2.43
18,AKMRTGD,1.33
19,KTTQKGL,> 23
20,SNKRTCT,> 29
21,VPGRKPG,> 23
22,FPNGTQR,> 36
23,PVAAHHH,1.06
24,TNHHHHH,6.25
25,TKRSIYV,> 23

row,Substance,substrate phage enrichment score
1,DIPQKLC,2
2,ALHLLPP,12
3,SEAAPCS,> 28
4,TTLFQAE,> 21
5,ERYFQGG,2.12
6,EIRTMQA,5.75
7,FLTECHR,2.56
8,KQQRAWL,7.8
9,DLCETVN,> 35
10,KPVGVSP,2.33
11,SQAAHHH,1.33
12,KFSKFEG,2.12
13,LRPNCQI,18
14,SLYFQGG,0.875
15,LTAPHLD,0.529
16,VHNGKSG,1.33
17,CRLQSDS,> 25
18,CAAAHHH,0.799
19,SSAAHHH,1.35
20,WRELQSY,> 25
21,AANSCSH,1
22,PHEPINK,2.56
23,AVIRRTS,> 27
24,TTQEERV,6.43
25,GNSCVVS,0.684

row,Substance,substrate phage enrichment score
1,CAAAQHQ,1.26
2,TGRAQLH,> 31
3,VPCPERH,0.769
4,SKAGSIR,2
5,WDMRDPA,> 26
6,PRTERHP,> 23
7,ITTEGKR,5.43
8,RAAAHQQ,2.25
9,CNVSMPP,17.5
10,ASAAAHH,0.852
11,LNIRDCP,1.27
12,PCAQYFQ,10.9
13,ESVQIQS,> 56
14,SMQNEEP,> 25
15,GNAAAHH,0.799
16,VDFQGGS,1.6
17,SAASHHH,0.667
18,CSRLQST,> 57
19,KTMPRSP,3.86
20,KTPSSMQ,> 87
21,LSREWPA,> 24
22,ARCCTPE,3.75
23,MEAAHHH,0.333
24,LRTSTLQ,> 26
25,SQVDSTG,11.4

row,Substance,substrate phage enrichment score
1,PLAAHHH,0.857
2,VYLQGGS,13
3,EHSALTV,12
4,PATTVLH,16.5
5,VTKWSEL,> 37
6,QNLKFRP,> 21
7,QPSACRA,1.75
8,PTCRTVR,> 28
9,CAAAQHH,0.914
10,LNFNCNS,11.5
11,HSQALNG,12.5
12,TWQLSCP,0.733
13,NTRSCLQ,> 48
14,NSAAHHH,2
15,GDHTRLQ,> 32
16,GCSSLHG,2.32
17,GLESFQG,> 25
18,IGAAHHH,0.647
19,RQPCTLQ,116
20,EVGPRGP,2.14
21,TESELQG,11.5
22,SSMDINR,1.93
23,RMAAHHH,0.667
24,VNLKHAP,9
25,RPTCHLQ,> 47

row,Substance,substrate phage enrichment score
1,SANLHGH,11.5
2,LTNVKVH,4.4
3,VTLQTQR,> 25
4,YLQDNAK,1.19
5,STLGHSR,> 75
6,PQSQYYP,2.1
7,GHTASPA,1
8,RALESKQ,> 32
9,THTGVRP,> 23
10,QWPHAKP,> 24
11,NQGGSAA,0.643
12,WAAAHHH,0.799
13,DHHHHGA,0.591
14,SLPVNLQ,17.5
15,TRMSDTR,> 22
16,VGYAKLQ,> 26
17,SGVCMRK,> 22
18,LESPCQA,2.08
19,YDCILQS,> 31
20,QVREEQQ,0.467
21,PILPHVM,> 25
22,CYDMTRQ,> 23
23,TPIATPQ,5.5
24,CSAAAHH,1.35
25,KANPRLQ,> 36

row,Substance,substrate phage enrichment score
1,QRTREKN,4.2
2,HTPQCKQ,> 23
3,GETRLRS,> 24
4,TRCQSEA,4.56
5,YPWDIVQ,> 21
6,NQAAHHH,1.76
7,PLCPMQS,> 34
8,ASQGANC,> 23
9,GCVNLQA,292
10,SSSHNMT,6.5
11,MGQTSGA,1.44
12,STTSTTA,> 34
13,QRTRGPT,0.792
14,GSAAHHH,1.32
15,WQGPRLQ,10
16,AIGCTLQ,> 37
17,GAGVHLW,> 24
18,QSAAHHH,1.21
19,YRQPSSR,> 27
20,GHAMTLQ,> 23
21,TGSETHS,8.3
22,LNITESQ,1
23,SGHTTLQ,> 26
24,IGSCVMD,2.27
25,HYPFLQS,> 37

row,Substance,substrate phage enrichment score
1,RVRVTLQ,> 230
2,GPTYAEA,11
3,SSSQRLT,> 32
4,HPAAHHH,0.674
5,THNNSVK,> 24
6,CRPVSAR,4.2
7,SHVQNTW,> 49
8,CSLQCAL,21
9,NLAAHHH,0.765
10,TDSTRVK,5
11,PRNEGVP,0.833
12,RAVQLQG,> 26
13,PRVATPT,> 46
14,IPSDFMM,1.65
15,RPTPYAN,0.769
16,SQPLRQV,1.84
17,SSVAAHH,2.78
